Reference: publication PMC4336329 (PLoS ONE, 2015)
Out of some 310,000 compounds screened, about 14,000 (4.5%) showed an effect of 50% or more. Effects have a minus sign here. This is one part of the list.

Each molecule was assayed against human ether-à-go-go-related gene (hERG) potassium channel (human, UniProt Q12809) (assay: primary screen, population patch clamp on CHO cells stably expressing hERG).
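Further: peak tail current of the secondary pulse compared with the same well before compound.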

Sequence of human ether-à-go-go-related gene (hERG) potassium channel (Q12809 whole entry, looked up): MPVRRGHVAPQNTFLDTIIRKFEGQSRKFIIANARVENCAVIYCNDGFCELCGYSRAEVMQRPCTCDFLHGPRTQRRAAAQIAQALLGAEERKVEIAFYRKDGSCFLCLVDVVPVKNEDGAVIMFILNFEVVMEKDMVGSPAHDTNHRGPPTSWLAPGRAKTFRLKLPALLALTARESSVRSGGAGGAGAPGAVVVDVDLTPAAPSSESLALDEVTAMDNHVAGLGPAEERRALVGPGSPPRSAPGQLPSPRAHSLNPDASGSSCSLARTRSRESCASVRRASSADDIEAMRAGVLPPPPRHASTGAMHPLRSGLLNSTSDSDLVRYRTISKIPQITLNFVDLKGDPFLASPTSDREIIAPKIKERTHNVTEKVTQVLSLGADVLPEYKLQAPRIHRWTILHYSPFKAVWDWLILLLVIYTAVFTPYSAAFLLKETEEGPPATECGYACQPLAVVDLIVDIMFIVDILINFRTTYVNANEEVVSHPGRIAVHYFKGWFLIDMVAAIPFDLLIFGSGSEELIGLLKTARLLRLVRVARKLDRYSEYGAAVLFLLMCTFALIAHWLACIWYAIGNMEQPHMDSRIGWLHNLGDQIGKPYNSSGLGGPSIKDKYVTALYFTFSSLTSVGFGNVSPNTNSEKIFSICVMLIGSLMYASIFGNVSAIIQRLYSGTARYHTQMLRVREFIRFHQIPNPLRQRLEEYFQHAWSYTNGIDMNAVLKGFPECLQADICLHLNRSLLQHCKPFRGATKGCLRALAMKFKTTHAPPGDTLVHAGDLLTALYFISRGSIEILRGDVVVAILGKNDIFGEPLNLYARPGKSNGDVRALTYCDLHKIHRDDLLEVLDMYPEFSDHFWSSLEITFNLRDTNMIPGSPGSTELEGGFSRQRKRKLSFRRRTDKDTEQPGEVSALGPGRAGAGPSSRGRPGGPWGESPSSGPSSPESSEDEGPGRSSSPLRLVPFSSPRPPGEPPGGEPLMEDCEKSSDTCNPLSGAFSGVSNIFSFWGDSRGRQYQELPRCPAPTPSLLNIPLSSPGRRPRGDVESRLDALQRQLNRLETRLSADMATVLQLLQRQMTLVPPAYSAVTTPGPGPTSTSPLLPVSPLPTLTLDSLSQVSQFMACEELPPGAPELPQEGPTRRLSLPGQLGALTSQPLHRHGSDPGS

SMILES | hERG current change (%, negative = inhibition) at 10uM
O=C(N=C1SCC(=O)N1c1ccccc1)c1ccco1 | -43.7%
O=C(O)C1=C(C(=O)Nc2cc(C(F)(F)F)ccc2Cl)CCCC1 | 27%
NC(=O)C1CCN(C(=O)CN2CCCc3ccccc32)CC1 | 22.6%
CCC1CCCCN1C(=O)c1ccc(OC2CCN(Cc3ccccn3)CC2)cc1 (stereo not drawn) | 5.27%
CCN(CC)S(=O)(=O)c1ccc(/C=C/C(=O)OCC(=O)NCc2ccc3c(c2)OCO3)cc1 | 5.34%
Cc1cc(C)c(-c2csc(Cc3nc(-c4cc5ccccc5oc4=O)cs3)n2)cc1C | 23.8%
CC1=C(N2CCCCC2)CCC1=O | 1.26%
COC(=O)NNC(=O)C12CC3CC(CC(C3)C1)C2 | 2.97%
CC(=O)Nc1ccc(SCCN2CC[C@@H](C(C)(C)C)CCC2=O)cc1 | 1.26%
Cc1c(O)ccc(NS(=O)(=O)c2ccccc2)c1C | 3.6%
Cc1onc(-c2ccccc2Cl)c1C(=O)Nc1ncn[nH]1 | 5.24%
C=CCN1c2ccccc2[C@]23C[C@@H](C(=O)OC)N(C(=O)c4ccco4)C2=NC(C(=O)OC)=C(C(=O)OC)[C@H]13 | -32.4%
CCc1c(C)sc(NC(=O)c2cc(-c3cc(OC)ccc3OC)on2)c1C#N | 3.3%
CC(Oc1ccccc1)c1ccnc(N)n1 (stereo not drawn) | 17.7%
COc1ccc(CNC(=O)C(OC(=O)c2ccco2)c2ccccc2F)cc1 (stereo not drawn) | -8.86%
C/C(=N/NS(=O)(=O)c1ccc(Br)cc1)c1c[nH]c2ccccc12 | 13.7%
CC1=C/C(=N\S(=O)(=O)c2ccccc2)C(C(C)C)=CC1=O | 7.47%
Cc1[nH]c(=O)[nH]c(=O)c1S(=O)(=O)N1c2ccc(F)cc2CCC1C (stereo not drawn) | 13.8%
Cc1nn(C)c(C)c1CNC(=O)/C=C/c1ccccc1F | 4.73%

SMILES | hERG current change (%, negative = inhibition) at 10uM
COc1ccc(C)cc1S(=O)(=O)N1CCC(C(=O)N2CCN(C)CC2)CC1 | 23.2%
Cc1cccc2c1N(N=O)CCC2 | -2.33%
Cc1ccccc1NC(=O)CSc1nc2c(c(-c3ccco3)c1C#N)CCCC2 | -15.3%
COc1ccc(Nc2nnc(SCC(=O)N3CCCC3)s2)cc1 | 2.03%
O=C(NCc1cccs1)C(=O)NCC(c1ccco1)N1CCN(c2ccc(F)cc2)CC1 (stereo not drawn) | -29%
COc1ccc(NC(=O)CN(C)C(=O)c2ccc3c(c2)OCCO3)cc1 | 17.5%
COc1ccccc1CNC(=O)CN1C(=O)c2cccc(N)c2C1=O | 16.9%
Cc1cccc(NS(=O)(=O)c2cc(Cl)ccc2Cl)n1 | 22.2%
COC(=O)Cc1c(O)ccn(CCc2c[nH]c3ccc(OC)cc23)c1=O | -20.9%
CCC(Oc1ccccc1)C(=O)Nc1ncc([N+](=O)[O-])s1 (stereo not drawn) | 30%
Cc1ccc2cc(CCNC(=O)C(C)C)c(=O)[nH]c2c1 | -2.85%
Cc1cccc(N2CCN(C(=O)C3CCN(S(=O)(=O)c4cccc5nsnc45)CC3)CC2C)c1 (stereo not drawn) | -15.3%
NC(=O)C1CCN(C(=O)COc2ccc3ccccc3c2Br)CC1 | 0.834%
COC(=O)/C(C#N)=C/c1c(N2CCN(Cc3ccc4c(c3)OCO4)CC2)nc2c(C)cccn2c1=O | -41%
O=[N+]([O-])c1ccc(C2CC(c3ccccc3)=Nc3ccccc3S2)cc1 (stereo not drawn) | -26.3%
CCN(CCCl)Cc1ccccc1Br.Cl | 16.3%
COc1ccc(CNC(=O)c2c(O)c3cccc4c3n(c2=O)CCC4)cc1OC | 16.1%
O=C(OC1CCOC1=O)c1cc(-c2cccs2)nc2ccccc12 (stereo not drawn) | 1.05%
N#Cc1cccc(NC(=O)CN2NS(=O)(=O)c3ccccc3C2=O)c1 | 13.2%

SMILES | hERG current change (%, negative = inhibition) at 10uM
CCC(=O)N1c2ccc(S(=O)(=O)CCC(=O)NCc3ccc4c(c3)OCO4)cc2CC1C (stereo not drawn) | 8.01%
CC1CCc2sc(C(=O)OCC(=O)NCc3ccccc3)cc2C1 (stereo not drawn) | 24.5%
Cc1ccccc1-c1nc(CS(=O)(=O)CC(=O)NCCCN2CC(C)CC(C)C2)c(C)o1 (stereo not drawn) | -45.1%
CCN(C(=O)C1CCN(c2nc(-c3ccc(OC)cc3)no2)CC1)c1ccc(OC)cc1 | -27.7%
COc1ccc(S(=O)(=O)N2CCOCC2)cc1NC(=O)CC1CC2CCC1C2 (stereo not drawn) | 6.5%
Cc1ccc(/C=C2\SC(=S)N(CCCC(=O)Nc3ccccn3)C2=O)cc1 | 15.2%
O=C(c1cccc(S(=O)(=O)N2CCOCC2)c1)N(CCO)Cc1ccccc1 | -19.8%
O=C(CNC(=O)c1ccc(Cl)cc1Cl)OCc1ccccc1 | 17.4%
O=c1[nH]c(=S)[nH]c2sccc12 | 12.4%
COc1ccc(Br)c2oc(SC)cc(=O)c12 | -5.41%
CC(C)CN1C(=O)c2ccc(C(=O)NCc3ccc4c(c3)OCO4)cc2C1=O | 13.6%
Cc1cc(Nc2ccc(F)c(Cl)c2)n2nc(C)nc2n1 | -18%
COc1cccc(C2C3=C(CCCC3=O)Nc3nc(-c4cc(OC)c(OC)c(OC)c4)nn32)c1 (stereo not drawn) | 0.87%
O=C(O)Cc1nc(-c2cccnc2)sc1-c1ccc(Br)cc1 | 38.1%
CCC/C=C(\CCC)C(NS(=O)(=O)c1cccc2cccnc12)c1ccc(C(=O)OC)cc1 (stereo not drawn) | 3.35%
C/C(=N\NC(=O)CSc1nnc(C)s1)c1ccc(O)cc1 | 5.38%
CC(/C=C1\SC(=S)N(C(C(=O)O)C(C)C)C1=O)=C\c1ccccc1 (stereo not drawn) | 3.88%
C=CCn1c(CCCNC(=O)C(C)(C)C)nc2ccccc21 | 18.2%
CN(C)CCCn1c(N)c(C#N)c2nc(C#N)c(C#N)nc21 | 14.6%
